The supplement of paper PMC9151546
Many values rest on one well or one pass, so single values are uncertain.

Tests used:
CHO-K1 [1] = assay: micronucleus frequency (% of nucleated events); higher = more micronuclei (genotoxic)
CHO-K1 [2] = assay: hypodiploid nuclei frequency (% of nucleated events); higher = more hypodiploid events (aneugenic)
Description: (§1)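 Flow-cytometric in vitro micronucleus assay (Litron MicroFlow) in CHO-K1 cells in 96-well plates, 19 concentrations (4.5-200 µM, n=1 per concentration). Without S9, cells were exposed for 24 h and sampled at 48 h. With Aroclor 1254-induced rat liver S9, cells were exposed for 3-4 h and sampled at 27-28 h. Read-outs are %MN and %hypodiploid nuclei relative to nucleated events, and relative survival as the nuclei-to-bead ratio versus the 1% DMSO vehicle control (x100).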

CHO-K1 [3] = assay: relative survival (nuclei to bead ratio vs DMSO control) (% of vehicle control); higher = more surviving cells
Description: as §1
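Wherever hypodiploid nuclei frequency (% of nucleated events) is given: hypodiploid nuclei gated on a flow cytometer with 488 nm excitation after SYTOX Green staining, cultures at 37 °C, positive controls vinblastine without S9 and cyclophosphamide with S9.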
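Wherever micronucleus frequency (% of nucleated events) is given: cells lysed with nuclei stained by SYTOX Green, then micronucleus-gated events counted against nucleated events by flow cytometry with 488 nm excitation.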
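Wherever relative survival (nuclei to bead ratio vs DMSO control) is given: Lysed-cell nuclei stained with SYTOX Green and counted against counting beads by flow cytometry at 488 nm excitation, with vinblastine (no S9) and cyclophosphamide (plus S9) as positive controls.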

C[C@](N)(Cc1ccc(O)c(O)c1)C(=O)O [Methyldopa sesquihydrate]
Conditions | hypodiploid nuclei frequency, CHO-K1 [2] [%] | micronucleus frequency, CHO-K1 [1] [%] | relative survival, CHO-K1 [3]
concentration: 4.5 (µM), S9 metabolic activation: with S9, exposure time: 3-4 hours | 0.38 | 0.86 | 104
concentration: 4.5 (µM), S9 metabolic activation: without S9, exposure time: 24 hours | 1.14 | 1.46 | 117
concentration: 5.63 (µM), S9 metabolic activation: with S9, exposure time: 3-4 hours | 0.38 | 1.04 | 127
concentration: 5.63 (µM), S9 metabolic activation: without S9, exposure time: 24 hours | 1.56 | 1.64 | 125
concentration: 7.04 (µM), S9 metabolic activation: with S9, exposure time: 3-4 hours | 0.34 | 1.46 | 142
concentration: 7.04 (µM), S9 metabolic activation: without S9, exposure time: 24 hours | 0.7 | 1.14 | 145
concentration: 8.8 (µM), S9 metabolic activation: with S9, exposure time: 3-4 hours | 0.24 | 1.22 | 114
concentration: 8.8 (µM), S9 metabolic activation: without S9, exposure time: 24 hours | 0.92 | 1.54 | 139
concentration: 11 (µM), S9 metabolic activation: with S9, exposure time: 3-4 hours | 0.34 | 1.78 | 117
concentration: 11 (µM), S9 metabolic activation: without S9, exposure time: 24 hours | 0.7 | 1.68 | 117
concentration: 13.7 (µM), S9 metabolic activation: with S9, exposure time: 3-4 hours | 0.2 | 1.84 | 124
concentration: 13.7 (µM), S9 metabolic activation: without S9, exposure time: 24 hours | 1.12 | 1.88 | 126
concentration: 17.2 (µM), S9 metabolic activation: with S9, exposure time: 3-4 hours | 0.4 | 1.76 | 110
concentration: 17.2 (µM), S9 metabolic activation: without S9, exposure time: 24 hours | 0.66 | 2.26 | 153
concentration: 21.5 (µM), S9 metabolic activation: with S9, exposure time: 3-4 hours | 0.24 | 1.2 | 111
concentration: 21.5 (µM), S9 metabolic activation: without S9, exposure time: 24 hours | 0.62 | 1.64 | 127
concentration: 26.8 (µM), S9 metabolic activation: with S9, exposure time: 3-4 hours | 0.24 | 0.68 | 124
concentration: 26.8 (µM), S9 metabolic activation: without S9, exposure time: 24 hours | 0.8 | 1.24 | 137
concentration: 33.6 (µM), S9 metabolic activation: with S9, exposure time: 3-4 hours | 0.24 | 0.76 | 137
concentration: 33.6 (µM), S9 metabolic activation: without S9, exposure time: 24 hours | 0.94 | 1.98 | 128
concentration: 41.9 (µM), S9 metabolic activation: with S9, exposure time: 3-4 hours | 0.2 | 1.16 | 98.1
concentration: 41.9 (µM), S9 metabolic activation: without S9, exposure time: 24 hours | 0.84 | 1.6 | 122
concentration: 52.4 (µM), S9 metabolic activation: with S9, exposure time: 3-4 hours | 0.22 | 0.72 | 124
concentration: 52.4 (µM), S9 metabolic activation: without S9, exposure time: 24 hours | 0.94 | 1.7 | 139
concentration: 65.5 (µM), S9 metabolic activation: with S9, exposure time: 3-4 hours | 0.26 | 0.78 | 123
concentration: 65.5 (µM), S9 metabolic activation: without S9, exposure time: 24 hours | 0.9 | 1.64 | 146
concentration: 81.9 (µM), S9 metabolic activation: with S9, exposure time: 3-4 hours | 0.22 | 1.2 | 114
concentration: 81.9 (µM), S9 metabolic activation: without S9, exposure time: 24 hours | 0.72 | 1.5 | 158
concentration: 102 (µM), S9 metabolic activation: with S9, exposure time: 3-4 hours | 0.2 | 0.92 | 130
concentration: 102 (µM), S9 metabolic activation: without S9, exposure time: 24 hours | 0.98 | 1.8 | 122
concentration: 128 (µM), S9 metabolic activation: with S9, exposure time: 3-4 hours | 0.2 | 0.98 | 129
concentration: 128 (µM), S9 metabolic activation: without S9, exposure time: 24 hours | 1.2 | 1.8 | 129
concentration: 160 (µM), S9 metabolic activation: with S9, exposure time: 3-4 hours | 0.2 | 0.92 | 125
concentration: 160 (µM), S9 metabolic activation: without S9, exposure time: 24 hours | 0.92 | 1.66 | 106
concentration: 200 (µM), S9 metabolic activation: with S9, exposure time: 3-4 hours | 0.08 | 0.98 | 112
concentration: 200 (µM), S9 metabolic activation: without S9, exposure time: 24 hours | 1.18 | 1.64 | 89.9
